From the supplement of paper PMC12217912
The list shows a part of the results. Sequences were assembled here from the parent chain. Inactive controls read about 0.05.

B1: TEV protease; numbered along this chain (parent)
chain: MGESLFKGPRDYNPISSSICHLTNESDGHTTSLYGIGFGPFIITNKHLFRRNNGTLVVQSLHGVFKVKDTTTLQQHLVDGRDMIIIRMPKDFPPFPQKLKFREPQREERICLVTTNFQTKSMSSMVSDTSCTFPSGDGIFWKHWIQTKDGQCGSPLVSTRDGFIVGIHSASNFTNTNNYFTSVPKNFMELLTNQEAQQWVSGWRLNADSVLWGGHKVFMVKPEEPFQPVKEATQL

Variants of: B1
Test: raw area under fraction-flipped curve 0-4 h after induction (AUC4h, not background-subtracted), DNA-recorder readout of cleavage of the substrate (dimensionless); higher = more cleavage of the substrate by the protease variant
Details: temperature: 34 °C; time window: 0-4 h after rhamnose induction
Experimental: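 In vivo DNA recorder in E. coli TOP10(DE3) ΔrhaA at 34 °C. Each TEVp single-site mutant (parent TEVp 0) is paired with a single-site variant of the 7-mer TEVs (canonical ENLYFQ|S). The substrate sits between flexible linkers in a Bxb1-sfGFP-TEVs-SsrA fusion, so cleavage stabilises Bxb1 and speeds flipping of a recombination array, read by NGS. The value is the raw area under the fraction-flipped curve over 0-4 h after rhamnose induction (AUC4h), with ≥20 reads per time point. It is not background-subtracted; inactive controls average about 0.047.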
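Also: Bxb1 expression induced with 0.2% (w/v) L-rhamnose at OD600 near 0.5, cultures sampled hourly, flipped fraction per protease–substrate barcode pair counted by paired-end Illumina sequencing.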

| Variant | area with substrate ENLYFAS | area with substrate ENLYFCS | area with substrate ENLYFDS | area with substrate ENLYFES | area with substrate ENLYFFS | area with substrate ENLYFHS | area with substrate ENLYFIS | area with substrate ENLYFKS | area with substrate ENLYFLS | area with substrate ENLYFMS | area with substrate ENLYFNS | area with substrate ENLYFPS | area with substrate ENLYFRS | area with substrate ENLYFSS | area with substrate ENLYFTS | area with substrate ENLYFVS | area with substrate ENLYFWS | area with substrate ENLYFYS | area with substrate ENLYFGS |
| --- | --- | --- | --- | --- | --- | --- | --- | --- | --- | --- | --- | --- | --- | --- | --- | --- | --- | --- | --- |
| T23V | 0.0481 | 0.0532 | 0.0529 | 0.0661 | 0.0683 | 0.068 | 0.0502 | 0.0595 | 0.0587 | 0.075 | 0.063 | 0.0568 | 0.0658 | 0.0699 | 0.0623 | 0.056 | 0.06 |  |  |
| E25D | 0.0373 | 0.0618 |  | 0.0616 | 0.0738 | 0.0605 | 0.0462 |  |  | 0.0731 |  | 0.0514 | 0.0413 |  | 0.0403 |  | 0.0621 | 0.062 |  |
| E25L | 0.0522 | 0.0578 | 0.0534 | 0.0698 | 0.042 |  | 0.0513 | 0.0668 | 0.0654 | 0.0692 | 0.067 | 0.0651 | 0.0652 | 0.055 | 0.069 | 0.0791 | 0.0594 |  | 0.0488 |
| E25V | 0.0659 |  |  | 0.068 | 0.0712 | 0.0623 | 0.0624 |  | 0.0447 | 0.067 | 0.0714 | 0.0571 | 0.041 | 0.0627 |  | 0.0524 |  | 0.0736 |  |
| S26D | 0.0664 |  |  | 0.0587 |  |  | 0.0636 | 0.0699 | 0.0527 | 0.066 | 0.0727 | 0.0607 | 0.0576 | 0.0665 | 0.0588 |  | 0.0515 | 0.0636 |  |
| G28F | 0.0721 | 0.0581 |  |  | 0.0759 |  | 0.0585 | 0.0627 |  |  |  | 0.0557 |  |  | 0.0569 | 0.0602 | 0.0527 | 0.0622 |  |
| G28K | 0.0614 |  |  | 0.0573 | 0.0655 |  | 0.058 |  |  | 0.0705 | 0.0599 | 0.0847 | 0.0785 |  | 0.0559 | 0.0517 | 0.0698 | 0.0556 |  |
| H29K | 0.06 |  | 0.0537 |  | 0.0695 |  | 0.0519 |  |  | 0.0433 | 0.0644 | 0.0635 | 0.0623 |  | 0.0558 |  |  | 0.0355 |  |
| H29S | 0.0661 | 0.0649 |  | 0.0627 | 0.0677 |  | 0.0574 | 0.0337 |  | 0.0646 | 0.0641 | 0.0575 | 0.0641 |  | 0.0298 | 0.0602 | 0.05 |  |  |
| H29V | 0.0512 |  | 0.02 | 0.0715 | 0.0766 | 0.0515 |  |  | 0.0619 | 0.0628 | 0.0585 | 0.0712 | 0.0661 | 0.0488 | 0.0768 | 0.0517 |  | 0.0555 | 0.0632 |
| T31D | 0.0621 | 0.06 |  | 0.0628 | 0.0699 |  | 0.0572 | 0.0575 | 0.0619 | 0.0649 | 0.0499 | 0.0617 |  | 0.0571 | 0.0495 |  | 0.0536 | 0.0585 |  |
| T31N | 0.0704 | 0.0689 | 0.063 | 0.0416 | 0.0656 | 0.0643 | 0.0511 | 0.0602 | 0.0582 | 0.0694 | 0.0691 | 0.0627 |  | 0.0558 | 0.0577 | 0.0562 | 0.0505 | 0.0648 | 0.0559 |
| T31S | 0.0587 | 0.05 | 0.0542 | 0.0673 | 0.0599 |  | 0.0491 | 0.0692 | 0.057 | 0.0787 | 0.0589 | 0.0587 | 0.0539 |  |  | 0.0929 | 0.0528 | 0.0502 | 0.0458 |
